From the antibiotic and cytotoxicity screens of Wong et al. (2023)
This is one part of the list.

Tests used:
HSkMC = human skeletal muscle cells; assay: cytotoxicity call (relative viability < 0.9); settings: 10 µM
HepG2 = assay: cytotoxicity call (relative viability < 0.9); settings: 10 µM
S. aureus RN4220 = assay: growth inhibition call (relative growth <= 0.2); settings: 50 µM

Row | SMILES | cytotoxicity call (HSkMC) | cytotoxicity call (HepG2) | growth inhibition call (S. aureus RN4220)
1 | Cc1noc(C)c1NC(=O)N[C@H]1CC[C@H](CC(=O)NCCCN(C)C)O[C@@H]1CO | inactive | inactive | inactive
2 | C[C@@H]1CN([C@@H](C)CO)C(=O)c2cccc(NC(=O)C3CCCCC3)c2O[C@@H]1CN(C)Cc1ccc(Oc2ccccc2)cc1 | inactive | inactive | inactive
3 | C=C[C@@](C)(O)CC/C=C(\C)C(=O)O[C@@H]1[C@@H]2O[C@]2(C)[C@H]2[C@H](O[C@@H]3O[C@H](CO)[C@@H](O)[C@H](O)[C@H]3O)OC=C[C@@]12O | inactive | inactive | inactive
4 | C[C@@H]1CN([C@H](C)CO)C(=O)Cc2cc(NC(=O)Nc3ccc(C(F)(F)F)cc3)ccc2O[C@@H]1CN(C)C(=O)Nc1ccccc1 | inactive | inactive | inactive
5 | COc1ccc(CNC(=O)C[C@H]2C[C@H]3c4cc(NC(=O)NC5CCCC5)ccc4O[C@H]3[C@@H](CO)O2)cc1 | inactive | inactive | inactive
6 | CC(C)Cc1ccc([C@@H](C)c2nc(-c3cccs3)no2)cc1 | inactive | inactive | inactive
7 | O=C1NC(=O)[C@H](Cc2ccccc2)N1 | inactive | inactive | inactive
8 | C[C@H]1CN([C@@H](C)CO)C(=O)c2cccc(NS(C)(=O)=O)c2O[C@@H]1CN(C)C(=O)Nc1ccc2c(c1)OCO2 | inactive | inactive | inactive
9 | O=C(C[C@@H]1C=C[C@@H](NC(=O)Nc2ccc3c(c2)OCO3)[C@H](CO)O1)NCCCN1CCOCC1 | inactive | inactive | inactive
10 | NC1(C(=O)O)CCCC1 | inactive | inactive | inactive
11 | O=C(CCCCCCC(=O)N/N=C/c1cccc(B(O)O)c1)NO | inactive | inactive | inactive
12 | COc1ccc(S(=O)(=O)N(C)C[C@H]2OCCCC[C@H](C)Oc3ccc(NC(=O)Nc4ccc5c(c4)OCO5)cc3C(=O)N([C@@H](C)CO)C[C@@H]2C)cc1 | inactive | inactive | inactive
13 | COc1ccc(NC(=O)Nc2ccc3c(c2)C(=O)N([C@H](C)CO)C[C@@H](C)[C@H](CN(C)S(=O)(=O)c2ccc(Cl)cc2)OCCCC[C@@H](C)O3)cc1 | inactive | active | inactive
14 | C[C@H](CO)N1C[C@H](C)[C@@H](CN(C)C(=O)Nc2cccc3ccccc23)Oc2ccc(NS(=O)(=O)c3ccccc3)cc2C1=O | inactive | inactive | inactive
15 | CCCNC(=O)N1C[C@H](C)[C@H](OC)CN(C)C(=O)c2ccc(NS(=O)(=O)CC(F)(F)F)cc2OC[C@@H]1C | inactive | inactive | inactive
16 | COc1ccc2c3c(n(c2c1)C)[C@H](CO)N(C[C@]13CN(C1)S(=O)(=O)c1ccccc1)C(=O)c1cccnc1 | inactive | inactive | inactive
17 | C[C@@H]1CCCCO[C@@H](CN(C)S(=O)(=O)c2ccc(Cl)cc2)[C@@H](C)CN([C@@H](C)CO)C(=O)c2cc(NS(=O)(=O)c3ccccc3)ccc2O1 | inactive | inactive | inactive
18 | Cc1noc(C)c1NC(=O)N(C)C[C@H]1Oc2ncc(C#CCC(C)C)cc2C(=O)N([C@@H](C)CO)C[C@@H]1C | inactive | inactive | inactive
19 | C[C@@H]1CN([C@H](C)CO)C(=O)CCCn2cc(nn2)CO[C@@H]1CN(C)C(=O)Nc1ccccc1C(F)(F)F | inactive | active | inactive

Row | SMILES | cytotoxicity call (HSkMC) | cytotoxicity call (HepG2) | growth inhibition call (S. aureus RN4220)
20 | C[C@@H]1CN([C@@H](C)CO)C(=O)CCCn2cc(nn2)CO[C@@H]1CN(C)C(=O)Nc1ccccc1C(F)(F)F | inactive | inactive | inactive
21 | O=C(C[C@H]1C=C[C@H](NC(=O)c2ccc(F)cc2)[C@@H](CO)O1)NCc1ccncn1 | inactive | inactive | inactive
22 | C[C@@H]1CCCCO[C@H](CN(C)S(=O)(=O)c2cccs2)[C@@H](C)CN([C@H](C)CO)C(=O)c2cc(NC(=O)Nc3ccc(C(F)(F)F)cc3)ccc2O1 | inactive | inactive | inactive
23 | C[C@H]1CN([C@@H](C)CO)C(=O)CCCn2nncc2CO[C@H]1CN(C)C(=O)c1cc(-c2ccccc2)on1 | inactive | inactive | inactive
24 | C[C@H](CO)N1C[C@H](C)[C@H](CN(C)C(=O)Nc2ccc(F)cc2)OCCCC[C@H](C)Oc2ccc(NC(=O)c3ccncc3)cc2C1=O | inactive | inactive | inactive
25 | COc1ccc2c3c(n(c2c1)C)[C@H](CO)N(C[C@]13CCN(CC1)CC1CCOCC1)C(=O)Cc1ccccn1 | inactive | inactive | inactive
26 | COCC#Cc1ccc2c(c1)O[C@@H](CN(C)C(=O)c1ccccc1F)[C@H](C)CN([C@@H](C)CO)S2(=O)=O | inactive | inactive | inactive
27 | COc1cccc(OC)c1C(=O)O[C@H]1[C@@H]2OC(=O)[C@@H](Cc3ccc4ccccc4c3)C/C=C/C[C@H](Cc3ccc4ccccc4c3)C(=O)O[C@H]2[C@@H](OC)O[C@@H]1CO | inactive | inactive | inactive
28 | C[C@@H]1CN([C@H](C)CO)C(=O)c2cc(C#CCN(C)C)cnc2O[C@H]1CN(C)Cc1cccc(C(=O)O)c1 | inactive | inactive | inactive
29 | NCC(=O)O | inactive | inactive | inactive
30 | C[C@@H]1CN([C@@H](C)CO)C(=O)Cc2cc(NS(=O)(=O)c3ccccc3)ccc2O[C@@H]1CN(C)S(C)(=O)=O | inactive | inactive | inactive
31 | CCS(=O)(=O)NCCc1csc(C)n1 | inactive | inactive | inactive
32 | COc1ccc(S(=O)(=O)N(C)C[C@@H]2Oc3c(NS(=O)(=O)c4cn(C)cn4)cccc3C(=O)N([C@H](C)CO)C[C@H]2C)cc1 | inactive | inactive | inactive
33 | Cc1noc(C)c1NC(=O)N(C)C[C@@H]1Oc2ccc(NC(=O)Nc3ccc(C(F)(F)F)cc3)cc2C(=O)N([C@H](C)CO)C[C@H]1C | inactive | inactive | inactive
34 | O=C(COC(=O)/C=C/c1cn(-c2ccccc2)nc1-c1ccc2c(c1)OCCO2)N[C@H]1CCS(=O)(=O)C1 | inactive | inactive | inactive
35 | COc1cccc(S(=O)(=O)Nc2ccc3c(c2)[C@H]2C[C@@H](CC(=O)NCc4cccc(F)c4)O[C@H](CO)[C@H]2O3)c1 | inactive | inactive | inactive
36 | C[C@@H]1CN([C@@H](C)CO)C(=O)Cc2cc(NC(=O)CCN3CCOCC3)ccc2O[C@H]1CN(C)S(C)(=O)=O | inactive | inactive | inactive
37 | CC=Cc1ccc2n(c1=O)C[C@@H]1[C@@H](CO)[C@H](C(=O)NCCc3cn(C)cn3)[C@H]2N1C(=O)C1CC1 | inactive | inactive | inactive
38 | CN(C)CCCCCCNC(=O)[C@@H]1C[C@@H]2C(=O)N[C@@H](CCCC[N+](C)(C)C)C(=O)N2[C@@H]1c1ccc(O)cc1 | inactive | inactive | inactive

Row | SMILES | cytotoxicity call (HSkMC) | cytotoxicity call (HepG2) | growth inhibition call (S. aureus RN4220)
39 | C[C@@H]1CN([C@@H](C)CO)C(=O)Cc2cc(NC(=O)Nc3cccc4ccccc34)ccc2O[C@H]1CN(C)Cc1ccncc1 | inactive | inactive | inactive
40 | COCCOC(=O)N1C(=O)[C@@]2(c3ccccc31)[C@H](C(=O)Nc1nc3ccccc3s1)[C@H]1C(=O)O[C@H](c3ccccc3)[C@H](c3ccccc3)N1[C@@H]2c1ccccc1OCCO | inactive | inactive | inactive
41 | CN(C)C(=O)C[C@H]1C=C[C@@H](NC(=O)C2CCOCC2)[C@H](CO)O1 | inactive | inactive | inactive
42 | C[C@@H]1CN([C@@H](C)CO)C(=O)Cc2cc(NC(=O)C3CCCCC3)ccc2O[C@@H]1CN(C)Cc1ccc(C(F)(F)F)cc1 | active | active | inactive
43 | Cc1c(C(=O)O)c(O)cc2c1C(=O)c1c(O)c(C3OC(CO)C(O)C(O)C3O)c(O)c(O)c1C2=O (stereo not drawn) | inactive | inactive | inactive
44 | COc1cc(C=CC(=O)N2CCCCCCC2)cc(OC)c1OC | inactive | inactive | inactive
45 | Cc1cccc(S(=O)(=O)N2C[C@H](O)COC[C@@H]3O[C@H](CC(=O)N4CCN(C)CC4)CC[C@H]32)c1 | inactive | inactive | inactive
46 | C[C@@H]1CN([C@@H](C)CO)C(=O)c2cc(NC(=O)Nc3cccc4ccccc34)ccc2O[C@@H]1CN(C)Cc1ccc(C(=O)Nc2ccccc2N)cc1 | inactive | inactive | inactive
47 | C[C@H](CO)N1C[C@H](C)[C@H](CN(C)Cc2ccc3c(c2)OCO3)Oc2c(NC(=O)c3ccc(-c4nccs4)cc3)cccc2C1=O | inactive | inactive | inactive
48 | CCn1nnnc1NCc1cccn1C | inactive | inactive | inactive
49 | C[C@@H]1CN([C@H](C)CO)C(=O)Cc2cc(NC(=O)Nc3ccccc3)ccc2O[C@@H]1CN(C)C(=O)Nc1ccc(C(F)(F)F)cc1 | inactive | inactive | inactive
50 | O=c1nc[nH]c2ccccc12 | inactive | inactive | inactive
51 | NC[C@H]1O[C@H](O[C@H]2[C@H](O[C@@H]3O[C@H](CO)[C@@H](O)[C@H]3O)[C@@H](O)[C@H](N)C[C@@H]2N)[C@H](N)[C@@H](O)[C@@H]1O | inactive | inactive | inactive
52 | COc1ccc(NC(=O)Nc2ccc3c(c2)CC(=O)N([C@@H](C)CO)C[C@@H](C)[C@@H](CN(C)Cc2ccc(Cl)c(Cl)c2)O3)cc1 | inactive | active | inactive
53 | CN(C)Cc1cn(CC[C@@H]2CC[C@H](N)[C@H](CO)O2)nn1 | inactive | inactive | inactive
54 | COc1cc(O)c2c(=O)c(OC)c(-c3ccc(OC)c(OC)c3)oc2c1 | inactive | inactive | inactive
55 | C[C@@H]1CCCCO[C@@H](CN(C)Cc2ccc(C(F)(F)F)cc2)[C@@H](C)CN([C@@H](C)CO)C(=O)c2cc(NC(=O)NC3CCCCC3)ccc2O1 | active | active | inactive
56 | CC(C)CC#Cc1cnc2c(c1)C(=O)N([C@H](C)CO)C[C@H](C)[C@@H](CN(C)C(=O)CCN1CCCCC1)O2 | inactive | inactive | inactive
